At least one structure is not confirmed: it was looked up by name or label, or the drawing left a doubt.
Test system: amidase
Experiment: Mouse liver microsomal amidase, isoniazid to isonicotinic acid
Format: biochemical
Text: Mouse liver microsomes were used as the source of amidase, and isoniazid was used as the amidase metabolism drugs. quantitative isoniazid was catalyzed into metabolites isonicotinic acid (INA) by amidase, and was used as the index for measurement of the amidase activity for establishment of the platform for screening in vitro amidase activity inhibitors. The HPLC system includes a Shimadzu the LC-LOAD pump, 1 Shimadzu system control and a Shimadzu autosampler (Shimadzu Scientific Instrument, Japan). A C18 column (particle size 5 μm, inner diameter of 50×4.6 mm, 25 cm) containing 70% methanol and 30% ammonium formate (50 mM, pH=2.5) of the mobile phase for HPLC separation, and the experimental steps are outlined as follows:
(2) An aliquot of 150 μL mouse liver microsomal solution was added to 100 μL isoniazid solution in 35 μL 67 mM potassium phosphate buffer solution ([…], pH=7) with a final concentration at 3 mM, and then mixed thoroughly with 15 μL amidase inhibitor (deionized water was added in the control group). (3) Incubation at 37° C. water bath for 30 minutes. (4) An aliquot of 300 μL acetonitrile (ACN) was added and mixed thoroughly, and incubated for 6 minutes. (5) An aliquot of 30 μL perchloric acid was then mixed and incubated for 6 minutes. (6) The mixture was centrifuged at 13000 g for 6 minutes. (7) After centrifugation, 100 μL of the supernatant was injected into HPLC. (8) Methanol ammonium formate (50 mM, pH=2.5)=70:30 (V/V) was selected as the mobile phase, and the flow rate was controlled at […] and detected at 270 nm UV. […] The amidase inhibition % was then calculated using the following formula: […]

Row | SMILES | Amidase inhibition (1 uM) | Amidase inhibition (10 uM) | Amidase inhibition (100 uM)
1 | O=c1cc(-c2ccccc2)oc2cc(O)cc(O)c12 [Chrysin] | 3.5 ± 6.1% | 24.7 ± 2.2% | 21.5 ± 2.1%
2 | CCCCCCCCCCCC1=C(O)C(=O)C=C(O)C1=O [Embelin] | 5.3 ± 5.2% | 6.6 ± 8.6% | 29.1 ± 1.2%
3 | COc1ccc(-c2coc3cc(O)ccc3c2=O)cc1 [Formononetin] | −2.1 ± 5.0% | 5.0 ± 0.4% | 9.8 ± 5.2%
4 | COc1cc(O)c2c(=O)cc(-c3ccc(O)cc3)oc2c1 [Genkwanin] | 1.6 ± 3.4% | 2.1 ± 10.0% | 11.3 ± 1.3%
5 | O=c1c(O[C@@H]2O[C@H](CO)[C@H](O)[C@H](O)[C@H]2O)c(-c2ccc(O)c(O)c2)oc2cc(O)cc(O)c12 [Hyperoside] | 4.6 ± 2.7% | 3.8 ± 4.4% | 8.4 ± 3.7%
6 | O=c1c(O[C@@H]2O[C@H](CO)[C@@H](O)[C@H](O)[C@H]2O)c(-c2ccc(O)c(O)c2)oc2cc(O)cc(O)c12 [Isoquercitrin] | −3.7 ± 1.4% | 5.1 ± 3.6% | 19.6 ± 5.9%
7 | O=C1C[C@@H](c2ccc(O)cc2)Oc2cc(O)cc(O)c21 [Narigenin] | 11.2 ± 6.5% | 13.5 ± 9.4% | 24.2 ± 7.6%
8 | O=C(CCc1ccc(O)cc1)c1c(O)cc(O)cc1O[C@@H]1O[C@H](CO)[C@@H](O)[C@H](O)[C@H]1O [Phloridzin] | −3.2 ± 11.0% | −3.1 ± 3.4% | 7.1 ± 13.9%
9 | C[C@@H]1O[C@@H](Oc2c(-c3ccc(O)c(O)c3)oc3cc(O)cc(O)c3c2=O)[C@H](O)[C@H](O)[C@H]1O [Quercitrin] | – | −14.4 ± 5.3% | 1.6 ± 4.4%
10 | C[C@@H]1O[C@@H](OC[C@H]2O[C@@H](Oc3c(-c4ccc(O)c(O)c4)oc4cc(O)cc(O)c4c3=O)[C@H](O)[C@@H](O)[C@@H]2O)[C@H](O)[C@H](O)[C@H]1O [Rutin] | −5.2 ± 1.2% | −4.7 ± 4.7% | 5.7 ± 8.2%
11 | O=c1cc(-c2ccc(O)cc2)oc2c([C@@H]3O[C@H](CO)[C@@H](O)[C@H](O)[C@H]3O)c(O)cc(O)c12 [Vitexin] | −0.6 ± 16.7% | 6.3 ± 5.0% | 11.5 ± 1.0%
12 | CCN(CC)C(=S)SSC(=S)N(CC)CC [disulfiram, reference compound] | 44.1 ± 1.0% | 42.1 ± 4.1% | 50.2 ± 9.1%
